# Source: the supplement of paper PMC12645437, “Orthogonal IMiD-Degron Pairs Induce Selective Protein Degradation in Cells” (ACS Chemical Biology, 2025)
# The list shows a part of the results.
# Molecular target: no compound (DMSO)
# Assay: log2 fold change of degron read counts, EGFP-low vs EGFP+ sorted cells; higher = lower degron-EGFP level without compound (poor expression or instability)
# Settings: compound: DMSO control; 18 h
# 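Further: jurkat cells carrying a lentiviral library of mutant zinc finger degrons fused to EGFP plus mCherry, mCherry+ cells FACS sorted, degron abundance counted by next-generation sequencing.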
row,Sequence,log2 fold change of degron read counts
1,FVCNQCGAHFTQKGNLLRHIKL,-0.651
2,FSCSVCGHAFTQKGNLLRHIKL,-0.487
3,LFCPICGFWCTQKGNLLRHIKL,2.38
4,FKCDICGAIFTQKGNLLRHIKL,-0.617
5,FLCPICGHFFTQKGNLLRHIKL,0.774
6,FLCPICGRLFTQKGNLLRHIKL,0.643
7,FVCDQCGAIFTQKGNLLRHIKL,-0.994
8,FYCEQCGAIFTQKGNLLRHIKL,0.29
9,LTCNQCGFRCTQKGNLLRHIKL,0.443
10,FYCPVCGAFFTQKGNLLRHIKL,1.47
11,FSCNICGAKFTQKGNLLRHIKL,-0.274
12,FVCEICGAPFTQKGNLLRHIKL,-1.17
13,FTCSVCGHHFTQKGNLLRHIKL,-0.465
14,FFCPICGAAFTQKGNLLRHIKL,0.316
